Reference: article PMC4336329 (PLoS ONE, 2015)
The whole screen tested about 310,000 compounds, of which about 14,000 (4.5%) showed an effect of 50% or more. The effect is printed as a negative number. Some of the results follow.

Molecular target: human ether-à-go-go-related gene (hERG) potassium channel (human, UniProt Q12809)
Test: primary screen, population patch clamp on CHO cells stably expressing hERG
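Further: peak tail current of the secondary pulse compared with the same well before compound.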

human ether-à-go-go-related gene (hERG) potassium channel, sequence (Q12809 whole entry, looked up): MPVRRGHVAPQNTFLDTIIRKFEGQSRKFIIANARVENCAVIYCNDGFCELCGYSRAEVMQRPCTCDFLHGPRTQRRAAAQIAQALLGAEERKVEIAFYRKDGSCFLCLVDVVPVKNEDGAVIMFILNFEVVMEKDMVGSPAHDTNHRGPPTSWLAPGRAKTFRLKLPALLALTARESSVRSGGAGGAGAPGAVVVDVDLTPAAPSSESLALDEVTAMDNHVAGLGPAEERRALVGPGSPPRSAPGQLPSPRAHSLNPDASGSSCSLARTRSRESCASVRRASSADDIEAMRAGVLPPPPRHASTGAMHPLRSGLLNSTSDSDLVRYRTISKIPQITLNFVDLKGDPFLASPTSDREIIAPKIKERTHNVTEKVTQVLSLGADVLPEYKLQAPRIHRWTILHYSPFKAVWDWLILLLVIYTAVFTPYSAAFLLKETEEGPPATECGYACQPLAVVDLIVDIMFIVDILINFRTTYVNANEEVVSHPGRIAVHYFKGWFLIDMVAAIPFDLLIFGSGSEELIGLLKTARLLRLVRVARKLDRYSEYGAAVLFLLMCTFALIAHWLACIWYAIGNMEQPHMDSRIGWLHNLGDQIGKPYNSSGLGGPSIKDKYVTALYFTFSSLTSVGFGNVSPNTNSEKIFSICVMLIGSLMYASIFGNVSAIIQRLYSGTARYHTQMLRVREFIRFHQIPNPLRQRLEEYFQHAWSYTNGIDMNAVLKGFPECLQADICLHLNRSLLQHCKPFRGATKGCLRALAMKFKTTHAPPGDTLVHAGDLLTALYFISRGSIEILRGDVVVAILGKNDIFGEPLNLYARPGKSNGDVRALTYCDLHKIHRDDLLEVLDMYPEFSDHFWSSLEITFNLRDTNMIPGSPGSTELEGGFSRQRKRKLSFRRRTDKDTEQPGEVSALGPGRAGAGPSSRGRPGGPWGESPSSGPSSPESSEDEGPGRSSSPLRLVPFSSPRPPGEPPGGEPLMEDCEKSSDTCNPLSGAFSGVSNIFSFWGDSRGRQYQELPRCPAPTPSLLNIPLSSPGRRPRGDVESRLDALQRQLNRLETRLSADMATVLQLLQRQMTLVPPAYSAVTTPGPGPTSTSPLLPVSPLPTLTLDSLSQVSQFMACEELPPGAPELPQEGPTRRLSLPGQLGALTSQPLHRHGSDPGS

Compound	hERG current change (%, negative = inhibition) at 10uM
Cc1ccc(-n2cnc3c(sc4nccc(N(C)C)c43)c2=O)cc1	-16.4%
COc1ccccc1CN1CC(C(=O)N(C)Cc2ccc(C)o2)CCC1=O (stereo not shown)	-14.5%
O=C(NCCc1ccccc1)c1ccc(Cl)nc1	-0.199%
O=C(O)COc1ccccc1C(Nc1ccccn1)c1cc(Cl)c2cccnc2c1O (stereo not shown)	1.4%
COc1ccc(S(=O)(=O)Nc2ccccc2C(=O)N2CCOCC2)cc1F	10.1%
Cc1cccc(C(=O)Oc2ccccc2-c2nnco2)c1	-4.34%
Brc1ccc(-c2nnc(-c3ccco3)o2)cc1	-3.06%
Oc1cnc2ccccc2c1CN1CCOCC1	16.6%
Cc1ccc(C(=O)N2CC(C)OC(C)C2)cc1S(=O)(=O)N1CCCCC1 (stereo not shown)	-8.45%
COc1cc(NC(=S)NCCSc2ccc(C)cc2)cc(OC)c1	-1.01%
O=c1[nH]c(NCCO)nc2ncn(Cc3ccccc3)c12	18.4%
COc1cc(NC(=O)COC(=O)c2ccc(C)c(S(=O)(=O)N3CCCCC3)c2)c(C)cc1[N+](=O)[O-]	5.33%
COc1ccc(Br)cc1S(=O)(=O)N(CC(=O)N1CCOCC1)c1ccccc1	-47%
O=C(Nc1ccn(Cc2ccccc2)n1)c1ccc(F)cc1	0.921%
Cc1ccc(NC(=O)Cn2cc(C(=O)C3CC3)c3ccccc32)cc1	18.5%
CC(=O)NC(Cc1cccc(F)c1)C(=O)NC1CCN(C(=O)c2ccc(C)cc2)CC1 (stereo not shown)	33%
Cc1cc(-c2nc(C)c(C(=O)NNS(=O)(=O)c3ccccc3)s2)no1	11.9%
O=C(NCCc1cccc(Cl)c1)c1ccc(Cl)c([N+](=O)[O-])c1	-40%
COc1ccccc1N(CC(=O)N(CC(C)C)CC(C)C)S(=O)(=O)c1cccs1	-7.08%
CCOCCCn1c(=S)[nH]c2cc(C(=O)NCCc3ccccc3)ccc2c1=O	15.4%
CN1CCC(n2nccc2N)CC1	14.5%
Cc1nc(C(C)NC(=O)c2ccc(OC3CCN(Cc4ccccn4)CC3)cc2)c(C)s1 (stereo not shown)	-9.05%

Compound	hERG current change (%, negative = inhibition) at 10uM
CCOc1ccc(NCc2nnc(SCc3ccc(Cl)cc3)n2-c2ccccc2)cc1	-8.69%
O=C(COc1ncnc2ccccc12)Nc1cc([N+](=O)[O-])ccc1F	-0.876%
CC(=O)Nc1sc2c(c1C(c1ccncc1)N1CCOCC1)CCCC2 (stereo not shown)	0.514%
Cc1nc(SC(C)C(=O)Nc2c(C)n(C)n(-c3ccccc3)c2=O)nc(C)c1C (stereo not shown)	-27.2%
CC12CCC(C(=O)N/N=C/c3ccc(O)cc3O)(OC1=O)C2(C)C (stereo not shown)	7.7%
Cc1ccn2c(=O)c(NC(=O)c3cccc4ccccc34)c(C)nc2c1	-1.31%
CCNC(=O)NCc1c(C)c(C)n(Cc2ccccc2)c1-n1cccc1	3.68%
Cc1[nH]nc2c1C(c1ccsc1)C1=C(CC(C)(C)CC1=O)N2 (stereo not shown)	26.3%
Cc1ccc(S(=O)(=O)Nc2ccc(NC(=O)/C=C/C(=O)O)cc2)cc1	13.4%
CCCCN1C(=O)NC(=O)C2(Cc3ccccc3N3CCOCC32)C1=O (stereo not shown)	18.7%
CCN(CC(=O)Nc1ccccc1C(F)(F)F)C(=O)c1ccc(N2C(=O)CCC2=O)cc1	16.1%
Cc1cc2oc(=O)cc(CN3CCCCC3C)c2cc1C(C)C (stereo not shown)	-22%
Cc1cccc(NC(=O)c2ccccc2OCC(=O)c2ccc(F)cc2)c1	4.39%
CC1CCCC(NC(=O)CCNC(=O)c2ccccc2Cl)C1C (stereo not shown)	1.35%
S=C(NCc1ccc(Cl)cc1)NCc1ccco1	4.1%
C=CCn1c(=O)/c(=C2/Sc3ccccc3N2CC)s/c1=C1/C(=O)NN=C1C	5.68%
CCCC/C(O)=C1\C(=O)CCCC1=NCCc1c(C)[nH]c2ccccc12	-12%
CC(=O)c1ccc(N2CCN(C(=S)Nc3cccc(F)c3)CC2)cc1	6.66%
CC(C)[C@H](NC(=O)OC(C)(C)C)C(=O)NCC1CCC(C(=O)N[C@@H](Cc2ccccc2)C(=O)O)CC1 (stereo partly shown)	10.2%
COc1ccc2[nH]c(=O)c(CNC3CCCCC3)cc2c1	-8.14%
Fc1ccc(COc2ccc(Cl)cc2/C=N/Nc2nc(N3CCCC3)nc(N3CCCC3)n2)cc1	4.86%
CCC(=O)n1nc(-c2ccc(Cl)cc2)nc1SC	18.9%

Compound	hERG current change (%, negative = inhibition) at 10uM
O=C(NCCc1ccccc1)C(=O)NCC1OCCN1S(=O)(=O)c1ccc(Cl)cc1 (stereo not shown)	-3.63%
Cc1cc(NC(=O)CCCn2nc([N+](=O)[O-])c(Cl)c2C)no1	-11.7%
FC(F)(F)c1cccc(-c2ccn3ncnc3n2)c1	-0.371%
O=C(N[C@@H](Cc1ccccc1)C(=O)O)c1cccnc1	13%
Cc1ccc(OC(=O)C(F)(F)F)c2c1NCCC2	-8.82%
CC(C)CN(C(=O)CN1CCN(c2ccc(O)cc2)CC1)c1c(N)n(CC(C)C)c(=O)[nH]c1=O	24.8%
COc1ccccc1C(=O)NC(=O)COC(=O)CN1C(=O)NC2(CCCCC2C)C1=O (stereo not shown)	-13%
CCCOC(=O)c1cc(=O)[nH]c2ccccc12	1.37%
Cc1[nH]n(-c2cccc(Cl)c2)c(=O)c1C=NCc1ccco1	-19.1%
Cn1nnnc1Sc1c(Cl)cccc1[N+](=O)[O-]	11%
CCc1ccc(N2CCN(CCNC(=O)Nc3ccccc3)CC2)cc1	-21.1%
Cc1ccc(NC(=O)n2ncc3c(C)cccc32)cc1F	20.5%
O=C(Nc1c2c(nn1-c1ccc(F)cc1)CSC2)c1ccc(S(=O)(=O)N2CCOCC2)cc1	-16.2%
COc1ccc(OC)c(-n2c(SCC(C)=O)nnc2-c2cccc(S(=O)(=O)N(C)C)c2)c1	-16.9%
Cc1sc2c(c1C)CN(CCN1CCOCC1)CN2C(=O)c1ccccc1	2.64%
CS(=O)(=O)N1CCN(c2ccc([N+](=O)[O-])c(NCc3ccccc3)c2)CC1	-8.11%
Cc1ccc(S(=O)(=O)N2CCN(S(=O)(=O)N3CCOCC3)CC2)c(C)c1	-11.6%
O=C(CSc1nc2cc(Cl)ccc2s1)NCc1ccc2c(c1)OCO2	0.137%
CC(C)c1ccccc1OCC(=O)Nc1cc(S(=O)(=O)N2CCOCC2)ccc1N1CCCC1	-8.28%
C=CCSc1nc2ccccc2n1C(=O)/C=C/c1ccc(OC)c(OC)c1	-10.8%
Cc1ccc(CN2CCNC(=O)C2CC(=O)NCCCn2cccn2)o1 (stereo not shown)	11.9%
CN(C)CCCNC(=S)/N=c1\sccn1Cc1ccccc1Cl	-44.4%

Compound	hERG current change (%, negative = inhibition) at 10uM
Cc1ccsc1CN(C)C(=O)CN1C(=O)NC(c2ccccc2)(c2ccccc2)C1=O	-21.5%
Nc1ccccc1SCC(=O)Nc1ccc2c(c1)OCCO2	3.12%
COC(=O)CSc1nnc2c3c4c(sc3nc(-n3nc(C)cc3C)n12)COC(C)(C)C4	-14.1%
Cc1cccc(NC(=O)CCNC(=O)c2ccccc2Cl)n1	-0.755%
O=C(CCNS(=O)(=O)c1ccc2c(c1)CCC(=O)N2)Nc1ccc2c(c1)OCCO2	-1.61%
C[N+](C)(C)CCCCCCCCCC[N+](C)(C)C.[Br-]	8.72%
N#CCCSCc1ccc2oc(C(=O)O)cc2c1	13.5%
CC(C)[C@H](NC(=O)c1ccco1)C(=O)OCC(=O)N(C)c1ccccc1	-29.2%
CCOC(=O)C(C)Oc1ccc(C2NC(=O)NC(C)=C2C(C)=O)cc1Br (stereo not shown)	-17%
O=C(NC1CCS(=O)(=O)C1)c1ccc(-c2ccc(Br)cc2)o1 (stereo not shown)	-20.9%
Cc1cc(NC(=O)CSc2ccc3nnc(-c4cccnc4)n3n2)no1	-10.2%
CC(=O)C(Cc1ccccc1)NC(=O)COC(=O)CCN1C(=O)C2CC=CCC2C1=O (stereo not shown)	7.85%
O=C1C(C=NCC2CCCO2)=C(O)c2ccccc21 (stereo not shown)	-2.05%
COc1ccc([N+](=O)[O-])cc1NC(=O)C1C2C=CC(C2)C1C(=O)O (stereo not shown)	6.42%
COC(=O)Nc1nncs1	6.94%
Cn1c(CSCc2ccc(F)cc2)nnc1SCC(=O)Nc1nccs1	1.66%
C=CCOc1ccc(C(=O)/C=C2/C(=O)Nc3ccccc32)cc1	-8.69%
O=C(NC1CCCC1)c1ccc2nc[nH]c2c1	7.17%
COc1ccc(S(=O)(=O)N2CCCCC2)cc1NC(=O)C1CC(=O)N(c2ccc3c(c2)OCCO3)C1 (stereo not shown)	-20.4%
C/C(=C\C(=O)c1cccnc1)Nc1ccc(C(=O)O)cc1	16.3%
CC(=O)N1N=C(c2ccccc2)CC1c1ccccc1[N+](=O)[O-] (stereo not shown)	2.95%
CCCc1nc(SC2CCCC2)c2c(=O)n(C)c(=O)n(C)c2n1	1.5%
